Source: PubChem BioAssay AID686970 (National Center for Advancing Translational Sciences (NCATS), 2013)
The campaign covered roughly 360,000 compounds. About 6,000 (1.7%) were called active. This list was built around the results that the source calls inconclusive (neither active nor inactive); the mix of calls is not that of the screen. Calls come from the whole dose curve; as a rule, active = well fitted cell-killing curve with a large enough effect; inconclusive = small, poorly fitted or top-dose-only effect, or effect the other way; inactive = flat fitted curve, though single readings scatter. Potencies of inconclusive entries are left out as doubtful fits.
Potency is the fitted concentration of half-maximal effect; tags give direction and shape of the fitted curve.

Assay: qHTS for induction of synthetic lethality in tumor cells producing 2HG: qHTS for the HT-1080-NT fibrosarcoma cell line;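 note: NT is the 2HG producing partner of a matched IDH1 knockdown line; nearly all actives have a fitted effect of over 55% in size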;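 for activity, negative = less viability: 0% = DMSO-treated cells and -100% = media-only wells without cells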
Settings: HT-1080-NT fibrosarcoma viability, CellTiter-Glo ATP luminescence, 48 h; activity, negative = less viability: at 46.1 µM (top of the series) unless noted
Summary of the method: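 Viability by CellTiter-Glo luminescence after 48 h compound exposure at 37C of HT-1080-NT cells (750/well, RPMI, 5% FBS). % activity scaled between DMSO wells and medium-only wells, then curve-fitted and categorized by curve class.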
For `CCCCCn1c(=O)c2ccccc2n2c(CCl)nnc12`, the Potency was active: 23.1 µM. For `O=C(N/N=C/c1cc(Br)ccc1O)c1ccccc1Cl`, the Potency was inconclusive [cytotoxic, partial curve]. For `COc1ccc(CNc2ncc(-c3cccc([N+](=O)[O-])c3)n2C)c(OC)c1OC`, the activity, negative = less viability was inconclusive: 3.22%. For `CC1(C)C/C(=N\NC(=S)Nc2ccccc2F)c2cc(O)ccc2O1`, the Potency was inconclusive [cytotoxic, single point]. For `COc1ccc(S(=O)(=O)Oc2ccc3c(c2)O/C(=C\c2cccnc2)C3=O)cc1`, the “activity, negative = less viability” value was inactive: -0.292%. With `Cc1nn(C)c(C(=O)NNC(=S)Nc2ccc(Cl)cc2)c1[N+](=O)[O-]` the Potency was inconclusive [cytotoxic, single point]. For `Cc1csc(NC(=O)c2ccc(-c3ccc(Cl)cc3Cl)o2)n1`, the Potency was inconclusive [cytotoxic, partial curve]. In the case of `CCN(CC)S(=O)(=O)c1ccc(NC(=S)Nc2ccc(F)cc2)cc1`, the “activity, negative = less viability” value was inactive: 0.657%. For `CC(=O)Nc1ccc(NC(=O)C2Cc3c(-c4ccc5c(c4)OCO5)ccnc3O2)cc1` (stereo not drawn), the “activity, negative = less viability” value was inactive: 19.2%. For `NNC(=O)/C(=C/c1cccs1)NC(=O)c1ccccc1Cl`, the Potency was inconclusive [cytotoxic, single point]. In the case of `COc1cc(OC)cc(C(=O)N[C@H](C(=O)Nc2nc(-c3cc(OC)ccc3OC)cs2)C(C)C)c1`, the “activity, negative = less viability” value was inactive: -6.65%. With `CN(C)CC/C=C1\c2cc(Cl)ccc2Sc2cc(F)c(F)cc21` the Potency was inconclusive [cytotoxic, single point]. For `COc1ccc([C@H]2C[C@@H](O)[C@H](n3cc(COC(=O)c4ccccc4)nn3)CN2CC2CCCCC2)cc1`, the Potency was inconclusive [cytotoxic, single point]. In the case of `CCCCNc1ccc2c3c(cccc13)C(=O)N(CCCC)C2=O`, the Potency was inconclusive [cytotoxic, single point]. In the case of `O=C(CCl)N(Cc1cccc([N+](=O)[O-])c1)c1cccc(Cl)c1`, the Potency was active: 6.51 µM. In the case of `CCc1nnc(NC(=O)C2Cc3ccccc3CN2S(=O)(=O)CC)s1` (stereo not drawn), the “activity, negative = less viability” value was inactive: 11.7%. For `CCc1ccc(/C=N/NC(=O)c2cc(-c3ccncc3)nc3ccccc23)s1`, the Potency was inconclusive [cytotoxic, partial curve]. In the case of `COc1cccc(NC(=O)COC(=O)c2ccccc2C(=O)N2CCN(c3ccccc3)CC2)c1`, the Potency was inconclusive [cytotoxic, single point]. For `CC(=O)c1cccc(NC(=O)Nc2cnn(Cc3ccc(Cl)cc3Cl)c2)c1`, the Potency was inconclusive [cytotoxic, single point]. For `Cc1ccc(S(=O)(=O)NC(CC(=O)OCc2ccccc2)C(=O)OCc2ccccc2)cc1` (stereo not drawn), the “activity, negative = less viability” value was inactive: 5.46%. With `N#Cc1c(N)nc(SCc2ccccc2)c(C#N)c1-c1ccco1` the Potency was inconclusive [cytotoxic, single point]. In the case of `COc1cc(C2C(C#N)=C(N)Oc3cc(O)ccc32)cc2c1OCO2` (stereo not drawn), the Potency was inconclusive [cytotoxic, single point]. In the case of `COc1ccc(/C=N/NC(=O)C[n+]2ccccc2)c(OC)c1`, the “activity, negative = less viability” value was inactive: 2.02%. With `O=C(c1ccc(Cl)c(Cl)c1)N1CCC(=O)N([C@H](COCc2ccc(Cl)cc2)Cc2ccccc2)CC1` the Potency was inconclusive [cytotoxic, single point]. For `COc1ccc(NC(=O)CSc2nc(N)c(C#N)cc2C#N)cc1`, the activity, negative = less viability was inconclusive: -39.1% [cytotoxic]. With `CC(C)c1ccc(NC(=O)Nc2nc(C(N)COCc3ccccc3)cs2)cc1` (stereo not drawn) the Potency was active: 20.6 µM. With `O=C(N/N=C/c1ccccc1O)C(=O)N1CCCCCC1` the Potency was inconclusive [cytotoxic, partial curve]. With `COc1ccc(C(C)=O)cc1CSc1nc2ccccc2c(=O)n1-c1ccccc1` the Potency was inconclusive [cytotoxic, single point]. In the case of `COc1ccccc1-c1ccc2c(c1)C(C)(Cc1ccc(OC(F)(F)F)cc1)C(=O)N2` (stereo not drawn), the Potency was inconclusive [cytotoxic, single point]. In the case of `O=C(Nc1ncc(S(=O)(=O)c2ccc([N+](=O)[O-])cc2)s1)c1cccc2ccccc12`, the Potency was inconclusive [cytotoxic, single point]. With `Cc1ccc(NS(=O)(=O)c2cccc(C(=O)NC3CCN(Cc4ccccc4)CC3)c2)c(C)c1` the Potency was inconclusive [cytotoxic, single point]. In the case of `CCCCC(=O)OCC(=O)C1(O)Cc2c(O)c3c(c(O)c2C(OC2CC(NC(=O)C(F)(F)F)C(O)C(C)O2)C1)C(=O)c1c(OC)cccc1C3=O` (stereo not drawn), the Potency was active: 23.1 µM. With `Cc1ccc(NC(=O)Cc2nc(COC(=O)c3c(F)cccc3Cl)cs2)cc1` the Potency was inconclusive [cytotoxic, single point]. With `Cc1cc(C)n2nc(-c3ccco3)nc2n1` the “activity, negative = less viability” value was inactive: 19.3%. With `COCCCNC(=O)c1c(N)n(-c2ccc3c(c2)OCO3)c2nc3ccccc3nc12` the Potency was inconclusive [cytotoxic, single point]. For `CC(=O)C1(O)CCC2C3CC(C)C4=CC(=O)C=CC4(C)C3(F)C(O)CC21C` (stereo not drawn), the activity, negative = less viability was inconclusive: 32.6%. For `CCOC(=O)OCC(=O)C1(O)CCC2C3CCC4=CC(=O)CCC4(C)C3C(O)CC21C` (stereo not drawn), the Potency was inconclusive [rising, partial curve]. With `COC(=O)C(Cc1cnc(Cl)s1)(C(=O)OC)c1ccc([N+](=O)[O-])cc1[N+](=O)[O-]` the “activity, negative = less viability” value was inactive: -3.16%. With `c1ccc(CCC2CCCCN2Cc2cn[nH]c2-c2cc3ccccc3o2)nc1` (stereo not drawn) the Potency was inconclusive [cytotoxic, partial curve, poor fit]. With `Cc1cccc(N2CCN(C(=O)c3cc4n(n3)C(C(F)(F)F)CC(c3ccco3)N4)CC2)c1C` (stereo not drawn) the Potency was inconclusive [cytotoxic, single point]. With `CCOc1cc(C#N)c(NC(=O)c2cccnc2)cc1OCC` the Potency was inconclusive [cytotoxic, full curve]. With `CC1(C(=O)NCc2cccc3ccccc23)CCN1Cc1ccccc1OC(F)F` (stereo not drawn) the Potency was inconclusive [cytotoxic, single point]. With `COc1cc(C(=O)Nc2nc(C)c(Cc3ccc4c(c3)OCO4)s2)cc(OC)c1OC` the Potency was active: 4.11 µM. In the case of `COc1cc2nc(Nc3ccc(C)c(Cl)c3)nc(N)c2cc1OC`, the Potency was inconclusive [cytotoxic, single point]. In the case of `Cc1ccccc1OCc1n(CC(=O)OC2CC(C)CCC2C(C)C)c2ccccc2[n+]1C` (stereo not drawn), the Potency was active: 16.4 µM. With `CC(=O)Nc1ccc(SCC(=O)NCCc2ccc(F)cc2)cc1` the Potency was inconclusive [cytotoxic, partial curve, poor fit]. For `COCCn1c(-c2ccc(OC)cc2)cnc1SCC(=O)Nc1cccc2ccccc12`, the “activity, negative = less viability” value was inactive: -17.3%. With `O=C1NC(Cc2ccc(O)cc2)c2nc3cc(Cl)ccc3c(=O)n2-c2cc3ccccc3cc21` (stereo not drawn) the Potency was active: 23.1 µM. With `Cc1cccc(NC(=O)CC2C(=O)NCCN2C(=O)Nc2ccc(Cl)cc2)c1` (stereo not drawn) the Potency was inconclusive [cytotoxic, single point]. With `CCCCC(O)(c1ccc(OC)cc1)C(CN1CCOCC1)c1ccccc1` (stereo not drawn) the Potency was inconclusive [cytotoxic, single point]. With `CCCn1c(=N)n(CC(O)COc2ccc(C)cc2)c2ccccc21` (stereo not drawn) the Potency was active: 16.4 µM. In the case of `CC(C)c1ccc(/C=N/NC(=O)CN(c2cccc(Cl)c2Cl)S(C)(=O)=O)cc1`, the Potency was active: 18.4 µM. With `O=C(CCCN1C(=O)/C(=C/c2ccccc2)SC1=S)Nc1ccc(C(=O)O)c(O)c1` the “activity, negative = less viability” value was inactive: -1.42%. With `Cc1ccc(S(=O)(=O)c2c(C)nn(C(C)(C)C)c2OC(=O)CC(C)C)cc1` the Potency was inconclusive [cytotoxic, single point]. With `O=C(CSc1cccc2cccnc12)N/N=C/c1cccnc1` the activity, negative = less viability was inconclusive: -7.35% [cytotoxic]. With `O=C(OCC#CCSc1nnc(-c2ccccc2)o1)c1cc2ccccc2o1` the “activity, negative = less viability” value was inactive: 8.17%. With `COc1ccc(NC(=O)c2cccc(S(=O)(=O)Nc3ccc(Br)cc3)c2)cn1` the Potency was inconclusive [cytotoxic, partial curve]. With `O=C(NCCc1c[nH]c2ccccc12)OCCCCOC(=O)NCCc1c[nH]c2ccccc12` the Potency was inconclusive [cytotoxic, single point]. With `COC(=O)c1cn(NC(=O)c2cnccn2)c(=O)c2ccccc12` the Potency was inconclusive [cytotoxic, full curve]. With `C=CCN1C(=O)S/C(=C\c2ccc(N3CCOCC3)cc2C)C1=O` the “activity, negative = less viability” value was inactive: 20.5%. For `COc1ccc(OC)c(NC(=O)c2nnn(CC(=O)Nc3ccc4c(c3)OCO4)c2N)c1`, the “activity, negative = less viability” value was inactive: 7.55%. For `O=C(Cc1csc(Nc2nc(=S)[nH]c3ccccc23)n1)N1CCN(c2cccc(Cl)c2)CC1`, the activity, negative = less viability was inconclusive: -17.1% [cytotoxic]. In the case of `CCCCCCCC(=O)N/N=C/c1cccnc1`, the Potency was inconclusive [rising, partial curve, poor fit]. With `COc1ccc(CN2CCCC(C(=O)c3ccc(SC)cc3)C2)cc1Cn1cccn1` (stereo not drawn) the Potency was inconclusive [cytotoxic, partial curve]. For `CC(C)=CCSc1nnc(CCNC(=O)OC(C)(C)C)o1`, the “activity, negative = less viability” value was inactive: -3.63%. For `O=C(NC1CCCCC1)C(CCc1ccccc1)N1CCc2ccccc2C1` (stereo not drawn), the Potency was inconclusive [cytotoxic, single point]. In the case of `COc1ccc(N(CC(=O)NCCSCc2ccccc2C)S(=O)(=O)c2ccccc2)cc1`, the Potency was inconclusive [cytotoxic, single point]. In the case of `CCOC(=O)c1ccc(N/C(=N\S(=O)(=O)c2ccccc2C)c2ccccc2)cc1`, the Potency was inconclusive [cytotoxic, partial curve].
